T1: high affinity trimeric IL-2R (IL-2Rα, IL-2Rβ and IL-2Rγ) on HEK-Blue IL-2 cells (UniProt P01589 22-272; P14784 27-551; P31785 23-369)
T1 sequence (looked up) 1: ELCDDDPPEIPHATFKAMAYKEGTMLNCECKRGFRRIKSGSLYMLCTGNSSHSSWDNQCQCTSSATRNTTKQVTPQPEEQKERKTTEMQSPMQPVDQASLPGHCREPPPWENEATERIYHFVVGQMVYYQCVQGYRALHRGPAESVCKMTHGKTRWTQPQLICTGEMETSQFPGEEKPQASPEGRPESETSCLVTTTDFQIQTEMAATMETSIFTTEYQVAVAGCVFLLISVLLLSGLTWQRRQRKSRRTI
T1 sequence (looked up) 2: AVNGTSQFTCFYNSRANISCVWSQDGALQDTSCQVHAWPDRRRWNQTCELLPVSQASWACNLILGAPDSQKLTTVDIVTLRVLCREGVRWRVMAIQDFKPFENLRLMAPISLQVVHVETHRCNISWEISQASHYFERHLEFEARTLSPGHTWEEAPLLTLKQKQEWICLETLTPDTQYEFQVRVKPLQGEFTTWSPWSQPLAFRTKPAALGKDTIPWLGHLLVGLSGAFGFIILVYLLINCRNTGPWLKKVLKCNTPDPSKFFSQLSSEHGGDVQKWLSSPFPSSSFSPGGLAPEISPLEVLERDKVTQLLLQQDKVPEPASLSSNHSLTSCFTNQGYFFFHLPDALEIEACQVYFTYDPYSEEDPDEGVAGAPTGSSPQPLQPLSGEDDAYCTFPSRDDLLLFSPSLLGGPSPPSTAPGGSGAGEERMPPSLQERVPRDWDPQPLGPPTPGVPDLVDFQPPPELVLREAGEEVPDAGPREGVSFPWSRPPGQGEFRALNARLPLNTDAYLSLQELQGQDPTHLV
T1 sequence (looked up) 3: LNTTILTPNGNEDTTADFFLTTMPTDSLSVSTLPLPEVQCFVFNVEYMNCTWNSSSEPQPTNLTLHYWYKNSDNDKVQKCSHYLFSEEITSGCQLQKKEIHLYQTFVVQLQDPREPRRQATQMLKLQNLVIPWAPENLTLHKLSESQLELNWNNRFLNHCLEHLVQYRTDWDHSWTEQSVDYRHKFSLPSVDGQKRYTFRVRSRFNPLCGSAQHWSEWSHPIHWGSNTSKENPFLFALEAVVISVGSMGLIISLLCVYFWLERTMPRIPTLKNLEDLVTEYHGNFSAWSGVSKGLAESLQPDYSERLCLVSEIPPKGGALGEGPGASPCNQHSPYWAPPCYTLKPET


Key:
[1] = target: T1, high affinity trimeric IL-2R (IL-2Rα, …); assay: cell-based or functional assay
[2] = target: T2, CD47 at the surface of Peak cells (human, UniProt Q08722); assay: flow cytometry, Peak cells, before cleavage
T2 construct: whole, on cells; also called cell surface CD47
Description: (§1) Binding activity of antibody-cytokine/receptor fusions before and after cleavage was also evaluated by flow cytometry. Peak cells derived from HEK 293 which are human cells expressing CD47 were used to evaluate masking efficacy and binding recovery to CD47 by flow cytometry. Peak cells were diluted in cold FACS buffer (PBS, 2% BSA) to 1.2×10⁶ cells/mL. 3×10⁵ cells/well were added in a 96 well V-bottom plate. The plate was then centrifugated for 5 min at 1300 rpm, 4° C. Supernatants were removed and cells were washed twice using FACS buffer. A serial dilution of antibody-cytokine/receptor fusions previously digested with MMP-9 or not digested as described above was prepared in FACS buffer. An irrelevant antibody was included. Then, 150 μL of each diluted antibody were added in corresponding well and incubated for 30 min at 4° C. Cells were washed twice with FACS buffer and 100 μL of a mouse anti human Fc-PE conjugated secondary antibody were added and the plate was incubated for 20 min at 4° C. Cells were then washed twice with FACS buffer. Finally, 150 μL of SYTOX blue dead cell stain (ThermoFisher) diluted to 1/5000 in FACS buffer were added before detection by flow cytometry with Cytoflex (Beckman Coulter). Acquisition was performed with 10000 events for each well. Data were analyzed by FlowJo software.

[3] = target: T3, His-tagged human CD47 (human, UniProt Q08722 partial chain, limits assumed); assay: BLI, His-CD47 on HIS1K sensor, antibody 15 µg/mL
T3 construct: loaded on HIS1K biosensors at 2.5 µg/mL; also called target antigen; not shown: His tag

[4] = target: T2, CD47 at the surface of Peak cells; assay: flow cytometry, Peak cells; EC50 before / EC50 after cleavage
Description: as §1

| Binder | EC50 before cleavage IL-2, HEK Blue IL-2 αβγ reporter assay [1] | EC50 ratio (BC/AC), HEK Blue IL-2 αβγ reporter assay [1] | EC50 [2] | Binding before cleavage (BLI) [3] | Binding recovery (BC/AC) [4] |
| --- | --- | --- | --- | --- | --- |
| pNOVI V2K K91_D1_IL-2_1_153_CM1_IL-2Rβ_27_239_CM1 VKCK IL-2Rα_1_238_CM1_VHCH (antibody, human IgG1, kappa, masked K91 fusion, uncleaved; also called n500; construct No 500) light: [about 150 residues left out]GGGGSVHMPLGFLGPGGGGSAVNGTSQFTCFYNSRANISCVWSQDGALQDTSCQVHAWPDRRRWNQTCELLPVSQASWACNLILGAPDSQKLTTVDIVTLRVLCREGVRWRVMAIQDFKPFENLRLMAPISLQVVHVETHRCNISWEISQASHYFERHLEFEARTLSPGHTWEEAPLLTLKQKQEWICLETLTPDTQYEFQVRVKPLQGEFTTWSPWSQPLAFRTKPAALGKDGGGGSVHMPLGFLGPGGSDIQMTQSPSSLSASVGDRVTITCNVDQVIANWLNWYQQKPGKAPKLLIYAASSLQSGVPSRFSGSGSGTDFTLTISSLQPEDFATYYCQQMHPRAPKQFGQGTKVEIKRTVAAPSVFIFPPSDEQLKSGTASVVCLLNNFYPREAKVQWKVDNALQSGNSQESVTEQDSKDSTYSLSSTLTLSKADYEKHKVYACEVTHQGLSSPVTKSFNRGEC heavy: ELCDDDPPEIPHATFKAMAYKEGTMLNCECKRGFRRIKSGSLYMLCTGNSSHSSWDNQCQCTSSATRNTTKQVTPQPEEQKERKTTEMQSPMQPVDQASLPGHCREPPPWENEATERIYHFVVGQMVYYQCVQGYRALHRGPAESVCKMTHGKTRWTQPQLICTGEMETSQFPGEEKPQASPEGRPESETSCLVTTTDFQIQTEMAATMETSIFTTEGGGGSVHMPLGFLGPGGS[about 120 residues left out][about 100 residues left out][human IgG1 Fc left out] | 0.14 nM | 10 | 17.5 nM | 0.7 nm | 21 |
| pNOVI V2K K91_J3_IL-2Rα_1_238_IL-2_21_153_CM1 VKCK_IL-2Rα_1_238_IL-2_21_153_CM1 VHCH (antibody, human IgG1, kappa, masked K91 fusion, uncleaved; also called n1051; construct No 1051) light: ELCDDDPPEIPHATFKAMAYKEGTMLNCECKRGFRRIKSGSLYMLCTGNSSHSSWDNQCQCTSSATRNTTKQVTPQPEEQKERKTTEMQSPMQPVDQASLPGHCREPPPWENEATERIYHFVVGQMVYYQCVQGYRALHRGPAESVCKMTHGKTRWTQPQLICTGEMETSQFPGEEKPQASPEGRPESETSCLVTTTDFQIQTEMAATMETSIFTTEGGGGSGGGGS[about 150 residues left out]GGGGSVHMPLGFLGPGGSDIQMTQSPSSLSASVGDRVTITCNVDQVIANWLNWYQQKPGKAPKLLIYAASSLQSGVPSRFSGSGSGTDFTLTISSLQPEDFATYYCQQMHPRAPKQFGQGTKVEIKRTVAAPSVFIFPPSDEQLKSGTASVVCLLNNFYPREAKVQWKVDNALQSGNSQESVTEQDSKDSTYSLSSTLTLSKADYEKHKVYACEVTHQGLSSPVTKSFNRGEC heavy: ELCDDDPPEIPHATFKAMAYKEGTMLNCECKRGFRRIKSGSLYMLCTGNSSHSSWDNQCQCTSSATRNTTKQVTPQPEEQKERKTTEMQSPMQPVDQASLPGHCREPPPWENEATERIYHFVVGQMVYYQCVQGYRALHRGPAESVCKMTHGKTRWTQPQLICTGEMETSQFPGEEKPQASPEGRPESETSCLVTTTDFQIQTEMAATMETSIFTTEGGGGSGGGGS[about 150 residues left out]GGGGSVHMPLGFLGPGGS[about 120 residues left out][about 100 residues left out][human IgG1 Fc left out] | 0.28 nM | 9 | 29.9 nM | 0.1 nm | 80 |

Now those with a lower EC50 [2], led by results:

| EC50 before cleavage IL-2, HEK Blue IL-2 αβγ reporter assay [1] | EC50 ratio (BC/AC), HEK Blue IL-2 αβγ reporter assay [1] | EC50 [2] | Binding before cleavage (BLI) [3] | Binding recovery (BC/AC) [4] | Binder |
| --- | --- | --- | --- | --- | --- |
| 0.16 nM | 12 | 13.4 nM | 0.7 nm | 27 | pNOVI V2K K91_C_IL-2_1_153_CM1 VKCK IL-2Rα_1_185_CM1_IL-2Rβ_27_239_CM1 VHCH (antibody, human IgG1, kappa, masked K91 fusion, uncleaved; also called n490; construct No 490) light: [about 150 residues left out]GGGGSVHMPLGFLGPGGSDIQMTQSPSSLSASVGDRVTITCNVDQVIANWLNWYQQKPGKAPKLLIYAASSLQSGVPSRFSGSGSGTDFTLTISSLQPEDFATYYCQQMHPRAPKQFGQGTKVEIKRTVAAPSVFIFPPSDEQLKSGTASVVCLLNNFYPREAKVQWKVDNALQSGNSQESVTEQDSKDSTYSLSSTLTLSKADYEKHKVYACEVTHQGLSSPVTKSFNRGEC heavy: ELCDDDPPEIPHATFKAMAYKEGTMLNCECKRGFRRIKSGSLYMLCTGNSSHSSWDNQCQCTSSATRNTTKQVTPQPEEQKERKTTEMQSPMQPVDQASLPGHCREPPPWENEATERIYHFVVGQMVYYQCVQGYRALHRGPAESVCKMTHGKTRWTQPQLICTGGGGSVHMPLGFLGPGGSAVNGTSQFTCFYNSRANISCVWSQDGALQDTSCQVHAWPDRRRWNQTCELLPVSQASWACNLILGAPDSQKLTTVDIVTLRVLCREGVRWRVMAIQDFKPFENLRLMAPISLQVVHVETHRCNISWEISQASHYFERHLEFEARTLSPGHTWEEAPLLTLKQKQEWICLETLTPDTQYEFQVRVKPLQGEFTTWSPWSQPLAFRTKPAALGKDGGGGSVHMPLGFLGPGGS[about 120 residues left out][about 100 residues left out][human IgG1 Fc left out] |
| 0.06 nM | 4 | 8.5 nM | 1 nm | 9 | pNOVI V2K K91_IL-2_CM1_VKCK_IL-2Rα WO LIN_VHCH (antibody, human IgG1, kappa, masked K91 fusion, uncleaved; IL-2Rα joined to VHCH without linker; also called n281; construct No 281) light: [about 150 residues left out]GGGGSVHMPLGFLGPGGSDIQMTQSPSSLSASVGDRVTITCNVDQVIANWLNWYQQKPGKAPKLLIYAASSLQSGVPSRFSGSGSGTDFTLTISSLQPEDFATYYCQQMHPRAPKQFGQGTKVEIKRTVAAPSVFIFPPSDEQLKSGTASVVCLLNNFYPREAKVQWKVDNALQSGNSQESVTEQDSKDSTYSLSSTLTLSKADYEKHKVYACEVTHQGLSSPVTKSFNRGEC heavy: ELCDDDPPEIPHATFKAMAYKEGTMLNCECKRGFRRIKSGSLYMLCTGNSSHSSWDNQCQCTSSATRNTTKQVTPQPEEQKERKTTEMQSPMQPVDQASLPGHCREPPPWENEATERIYHFVVGQMVYYQCVQGYRALHRGPAESVCKMTHGKTRWTQPQLICTGEMETSQFPGEEKPQASPEGRPESETSCLVTTTDFQIQTEMAATMETSIFTTE[about 120 residues left out][about 100 residues left out][human IgG1 Fc left out] |
| 0.89 nM | 4 | 6.3 nM | 0.7 nm | 17 | pNOVI V2K K91_Q1_IL-2 Q126T CM1_VKCK_IL-2Rα_CM1_VHCH (antibody, human IgG1, kappa, masked K91 fusion with IL-2 Q126T, uncleaved; also called n1030; construct No 1030) light: [about 150 residues with changes left out]GGGGSVHMPLGFLGPGGSDIQMTQSPSSLSASVGDRVTITCNVDQVIANWLNWYQQKPGKAPKLLIYAASSLQSGVPSRFSGSGSGTDFTLTISSLQPEDFATYYCQQMHPRAPKQFGQGTKVEIKRTVAAPSVFIFPPSDEQLKSGTASVVCLLNNFYPREAKVQWKVDNALQSGNSQESVTEQDSKDSTYSLSSTLTLSKADYEKHKVYACEVTHQGLSSPVTKSFNRGEC heavy: ELCDDDPPEIPHATFKAMAYKEGTMLNCECKRGFRRIKSGSLYMLCTGNSSHSSWDNQCQCTSSATRNTTKQVTPQPEEQKERKTTEMQSPMQPVDQASLPGHCREPPPWENEATERIYHFVVGQMVYYQCVQGYRALHRGPAESVCKMTHGKTRWTQPQLICTGEMETSQFPGEEKPQASPEGRPESETSCLVTTTDFQIQTEMAATMETSIFTTEGGGGSVHMPLGFLGPGGS[about 120 residues left out][about 100 residues left out][human IgG1 Fc left out] |

— patent publication US20240254223A1 (NOVIMMUNE, published 2024)
